Assay results published in the supplement of paper PMC10338343.
± gives the standard deviation. This is a selection; strong and weak results do not stand in their true shares.

Tested on: MIWI (PIWIL1) piRISC loaded with L1MC piRNA (30 nt)
Assay: pre-steady-state target cleavage rate (min^-1); MIWI and MILI are mouse PIWI proteins and EfPiwi is from a freshwater sponge; tags in brackets are library labels; higher = faster piRNA-guided slicing of the target
Conditions: guide: L1MC piRNA 5'p-UAACUAAAUACUAUGCAAGCUGUAGGUCCU
In short: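 Cleave-'n-Seq used a transcribed, DNA-blocked target RNA library at 0.1 nM and active affinity-purified piRISC with one synthetic guide at 1 nM, with or without 500 nM GTSF1 partner protein, in HEPES–potassium acetate buffer at 33 °C for 0–8 or 0–960 min. Uncleaved targets were sequenced and normalised to depth and to weakly complementary targets, and three trials were pooled with k3 capped at 0.0001 min^-1. The pre-steady-state cleavage rate was estimated by a burst-and-steady-state fit.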

[1] = auxiliary factor: 500 nM mouse GTSF1
[2] = auxiliary factor: none (no GTSF1)

Row | Sequence | pre-steady-state target cleavage rate [1] | pre-steady-state target cleavage rate [2]
1 | UCCUGGUACAGCUUGCUAGUAUUUAGUUA | 0.019 ± 0.0058 | 0.00454 ± 0.0026
2 | UCCUCCUACACCUUGCAUAGUAUUUAGUUA | 0.863 ± 0.046 | 0.0435 ± 0.0061
3 | UGGACCUACAGCUUGGAUUGUAUUUAGUUA | 0.704 ± 0.035 | 0.0134 ± 0.0038
4 | UCCUGGAUGUGCUAGCAUAGUAAUUAGUUA | 0.00758 ± 0.0032 | 0.00345 ± 0.0031
5 | UCGACCUACAGCUUGCAUAGUAUGUUAGUUA | 0.566 ± 0.031 | 0.0175 ± 0.0044
6 | UCCUGGAACAGCUUGCAUACUAUUUACUUA | 0.205 ± 0.03 | 0.0152 ± 0.0032
7 | UCGACCUACAGCUUGCUUAGAAUUUAGUUA | 0.264 ± 0.024 | 0.00705 ± 0.0021
8 | AGGACCAACAGCUUGCAUAGUAUUUAGAUA | 0.509 ± 0.045 | 0.0557 ± 0.011
9 | AGGACCUACAGCUUGCAUAGUAUUUUCUAA | 0.295 ± 0.035 | 0.0121 ± 0.0048
10 | UCGACCUACAGCUUGCAUAGUUUAUAGUUA | 0.192 ± 0.025 | 0.0113 ± 0.0034
11 | AGGACCUUCAGCUUGCAUAGUAUUUAGAUA | 0.559 ± 0.05 | 0.0523 ± 0.014
12 | UCGACCAUCAGCUUGCAUAGUAUUUAGAAA | 0.464 ± 0.041 | 0.00942 ± 0.0035
13 | UCCUGCUACAGCUUGCAUAGUAUUUUGUUA | 0.799 ± 0.046 | 0.0348 ± 0.007
14 | UCGACCUACAGCUUGCAUAGUAAAUAGUAA | 0.433 ± 0.054 | 0.0028 ± 0.0025
15 | UCCACCAUCAGCUUGCAUAGUAUUUAGUUA | 1.23 ± 0.044 | 0.0574 ± 0.0082
16 | UCGACCUACAGCUUGCAUAGUAUUUCGUUA | 0.562 ± 0.052 | 0.0485 ± 0.0088
17 | UCCUGGAACAGCUUGCAUAGAAUUUACUUA | 0.0935 ± 0.025 | 0.00665 ± 0.0022
18 | AGGACCUACAGCUUGCAAAGUAUUUUGUUA | 0.836 ± 0.071 | 0.0148 ± 0.0028
19 | UCGACCUACAGCUUGCAUAGAAUUUAGUAA | 0.507 ± 0.054 | 0.0158 ± 0.0044
20 | UCGACCUACAGCUAGCAUACUAUUUAGUUA | 0.349 ± 0.023 | 0.0141 ± 0.0029
21 | UCCACCUACACCUUGCAUAGUAUUUACUUA | 0.302 ± 0.054 | 0.0244 ± 0.0043
22 | UGGACCUACAGCUUGCAUAGUAGUUUAGUUA | 0.456 ± 0.038 | 0.0158 ± 0.0038
23 | UCCUGCUACAGCUUGCAUAAUAUUUAGUUA | 0.743 ± 0.047 | 0.0368 ± 0.0099
24 | UGGACCUACAGCUUGCAUAGUAUAAUGUUA | 0.347 ± 0.034 | 0.0246 ± 0.0048
25 | UCCUCGUAGAGCUUGCAUAGUAUUUAGUUA | 1.02 ± 0.048 | 0.0374 ± 0.0076

Row | Sequence | pre-steady-state target cleavage rate [1] | pre-steady-state target cleavage rate [2]
26 | AGGACCAACAGCUUGCAUAGUAUUUUGUUA | 0.896 ± 0.073 | 0.0712 ± 0.015
27 | UCCUGGAUCAGCUUCGCAUAGUAUUUAGUUA | 0.783 ± 0.049 | 0.0119 ± 0.0036
28 | UCCUCCUAGAGCUAGCAUAGUAUUUAGUUA | 0.634 ± 0.035 | 0.0109 ± 0.0023
29 | UCCUCCUACUAGCUUGCAUAGUAUUUAGUUA | 0.698 ± 0.031 | 0.0459 ± 0.0088
30 | UCCUGGAUGUGCUAGCAUAGUAUUUAGUAA | 0.033 ± 0.0071 | 0.0042 ± 0.0028
31 | UGCACCUACAGCUUGCAUAGUAUUUUGUUA | 0.852 ± 0.083 | 0.0692 ± 0.015
32 | UGGACGUACAGCUUGCAUAGUAUUUAGUAA | 0.897 ± 0.076 | 0.0568 ± 0.011
33 | UCCUGGUACAGCUUGCAUUGUAUUAAGUUA | 0.0832 ± 0.018 | 0.00901 ± 0.0038
34 | UCCUCCUACAGCUUGCAUAGUAUAUUAGUUA | 0.98 ± 0.049 | 0.00817 ± 0.0014
35 | UCCUGGAUCAGAUUGCAUAGUAUUUAGUUA | 0.442 ± 0.028 | 0.00557 ± 0.0017
36 | UCGACCUAUAGCUUGCAUAGUAUUUAGUUA | 1.04 ± 0.055 | 0.0703 ± 0.014
37 | UGGACCUACAGCUUGCAUAGUUAUUAGUAA | 0.0811 ± 0.015 | 0.00438 ± 0.002
38 | UCCUCCUACAGCUUGGAAAGUAUUUAGUUA | 0.981 ± 0.036 | 0.00576 ± 0.002
39 | UCCUGGAUCAGCUUGCAUAGUAUUUAUGUUA | 0.355 ± 0.025 | 0.0152 ± 0.0034
40 | UCCUGCUAGAGCUUGCAUAGUAUUUAGAAA | 0.374 ± 0.068 | 0.00336 ± 0.0028
41 | UCGACCAACAGCUUGCAUAGUAAUUAGUUA | 0.972 ± 0.041 | 0.0305 ± 0.0074
42 | UGGACCUACAGCUUGCUUAGUAUUUUGUUA | 1.03 ± 0.072 | 0.0186 ± 0.0042
43 | UCGACCUACAGCUUCCUUAGUAUUUAGUUA | 0.418 ± 0.032 | 0.0023 ± 0.0015
44 | ACGACCUACAGCUUGCAUUGUAUUUAGUUA | 1.17 ± 0.049 | 0.045 ± 0.0091
45 | UCCACCUACAGCUUGCAAACUAUUUAGUUA | 0.295 ± 0.027 | 0.0061 ± 0.0024
46 | UCGACUUACAGCUUGCAUAGUAUUUAGUUA | 1.56 ± 0.045 | 0.0755 ± 0.013
47 | UCCUCCUACAGCUUGCAUAGUAUUUAGAUUA | 0.342 ± 0.031 | 0.0121 ± 0.0024
48 | UCCUGGAUGAGCUUGCUUAGUAUUUUGUUA | 0.285 ± 0.022 | 0.0143 ± 0.0037
49 | UCCUGGAACAGCUUGCAUAGUAUUUAGUUG [g2:g23:cont:t1G] | 0.591 ± 0.032 | 0.0542 ± 0.01
50 | UCCUGGUACAGCUUGCAUAGUAUUUAGUAUA | 0.473 ± 0.052 | 0.00784 ± 0.0025
